Measured values taken from the supplement of paper PMC12578646, “Prodrug florfenicol amine is activated by intrinsic resistance to target Mycobacterium abscessus” (Nature Microbiology, 2025).

Tests used:
[1] = tested on: Mycobacterium abscessus ATCC 19977; assay: growth inhibition; higher = more inhibition
Procedure: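 384-well checkerboard, three replicates; 5 days at 37 °C, then 24 h with resazurin; fluorescence scaled to growth and killed controls.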

[2] = tested on: Mycobacterium abscessus ATCC 19977 WhiB7 R76del; assay: growth relative to untreated wells; higher = more growth (less inhibition)
Procedure: (§1)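 384-well two-fold dose series, two replicates; 5 days at 37 °C, then 24 h with resazurin; fluorescence scaled to growth and killed controls.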

[3] = tested on: Mycobacterium abscessus ATCC 19977 Eis2 Y255*
Procedure: as §1

[4] = tested on: Mycobacterium abscessus ATCC 19977 WhiB7 R76del
Procedure: as §1

[5] = tested on: Mycobacterium abscessus ATCC 19977 ΔwhiB7
Procedure: as §1

[6] = tested on: Mycobacterium abscessus ATCC 19977 Eis2 Y284*
Procedure: as §1

[7] = tested on: Mycobacterium abscessus ATCC 19977 WhiB7 T70fs
Procedure: as §1

[8] = tested on: Mycobacterium abscessus ATCC 19977 Eis2 T258R
Procedure: as §1

[9] = tested on: Mycobacterium abscessus ATCC 19977 Δeis2
Procedure: as §1

[10] = tested on: Mycobacterium abscessus ATCC 19977 Eis2 Y227D
Procedure: as §1

[11] = tested on: Mycobacterium abscessus ATCC 19977 WhiB7 L37P
Procedure: as §1

[12] = tested on: Mycobacterium abscessus ATCC 19977 Eis2 E120fs
Procedure: as §1

[13] = tested on: Mycobacterium abscessus ATCC 19977 WhiB7 F24fs
Procedure: as §1

[14] = tested on: Mycobacterium abscessus ATCC 19977 WhiB7 A51T
Procedure: as §1

CS(=O)(=O)c1ccc([C@@H](O)[C@H](N)CF)cc1 [florfenicol amine] + CC[C@H]1OC(=O)[C@H](C)[C@@H](O[C@H]2C[C@@](C)(OC)[C@@H](O)[C@H](C)O2)[C@H](C)[C@@H](O[C@@H]2O[C@H](C)C[C@H](N(C)C)[C@H]2O)[C@](C)(OC)C[C@@H](C)C(=O)[C@H](C)[C@@H](O)[C@]1(C)O [Clarithromycin]
growth inhibition [%], [1]
Conditions | partner concentration 0.003906 µg/mL | partner concentration 0.007812 µg/mL | partner concentration 0.01562 µg/mL | partner concentration 0.03125 µg/mL | partner concentration 0.0625 µg/mL | partner concentration 0.125 µg/mL | partner concentration 0.25 µg/mL | partner concentration 0.5 µg/mL | partner concentration 1 µg/mL | partner concentration 2 µg/mL
0.241504 µg/mL | 17.7 | 8.89 | -8.91 | -19.8 | -11 | 69.1 | 98.27 | 101.7 | 103.3 | 103.4
0.483008 µg/mL | 11.4 | 4.1 | -9.12 | -15 | 5.26 | 80.4 | 98 | 102.6 | 103.57 | 103.7
0.966016 µg/mL | -17.1 | -19.2 | -24.4 | -22.8 | 11.7 | 83.3 | 96.9 | 101.4 | 102.9 | 103.2
1.93203 µg/mL | -17.8 | -16 | -13.2 | -7.81 | 49.8 | 95.34 | 98.5 | 102.4 | 103.52 | 103.7
3.86406 µg/mL | -11.6 | -7.39 | -5.44 | 15 | 70.6 | 99.3 | 101.2 | 98.9 | 104.2 | 103
7.72813 µg/mL | -6.88 | 10.7 | 31.7 | 55.8 | 95.28 | 101.6 | 99.9 | 103.92 | 104.41 | 104.47
15.4563 µg/mL | 72.4 | 84.5 | 87.2 | 92.48 | 99.21 | 103.5 | 103 | 104.5 | 104.68 | 104.8
30.9125 µg/mL | 90.87 | 92.02 | 93.65 | 97.07 | 102.8 | 104.8 | 104.8 | 104.7 | 104.9 | 105.1
61.825 µg/mL | 95.22 | 93.72 | 95.9 | 100.7 | 104.6 | 105.2 | 102 | 104.5 | 104.4 | 104.6
123.65 µg/mL | 100 | 101 | 102.8 | 103.9 | 104.5 | 104.6 | 103.9 | 103.9 | 103.7 | 103.8

NC[C@H]1O[C@H](O[C@H]2[C@H](O)[C@@H](O[C@H]3O[C@H](CO)[C@@H](O)[C@H](N)[C@H]3O)[C@H](N)C[C@@H]2N)[C@H](N)[C@@H](O)[C@@H]1O [kanamycin B]
[2]
Conditions | growth [%]
0.03125 µg/mL | 119
0.0625 µg/mL | 110
0.125 µg/mL | 120
0.25 µg/mL | 119
0.5 µg/mL | 120
1 µg/mL | 126
2 µg/mL | 0.00844
4 µg/mL | -0.592
8 µg/mL | -0.595
16 µg/mL | -0.285
32 µg/mL | -0.0151
64 µg/mL | 1.17

Conditions | IC50 [µg/mL]
[3] | 2.5 (≈ 5.18 µM)
[4] | 1.56 (≈ 3.23 µM)
[5] | 1.23 (≈ 2.55 µM)
[6] | 2.55 (≈ 5.28 µM)
[7] | 1.73 (≈ 3.59 µM)
[8] | 2.63 (≈ 5.43 µM)
[9] | 2.48 (≈ 5.14 µM)
[10] | 3.38 (≈ 6.99 µM)
[11] | 1.27 (≈ 2.64 µM)
[12] | 3.46 (≈ 7.15 µM)
[13] | 1.72 (≈ 3.56 µM)
[14] | 1.72 (≈ 3.56 µM)

In brackets after ≈: the same amount, converted by molar mass. M. abscessus ATCC 19977 and its deletion, point and complemented mutants after 5 days of drug at 37 °C plus 24 h of resazurin. Growth in % of untreated wells at the dose given (lower = more inhibition); checkerboards give % inhibition (higher = more inhibition); IC50 from the fitted curve (lower = more potent). No active / inactive call. IC50 values come from the same 384-well curves. Growth is not capped and can exceed 100%. The direction of the checkerboard scale is read from the raw signals. Capreomycin is a mixture.
